Laboratory results: the supplement of paper PMC10185492
Some of the results follow. These are enrichments in a pooled selection; single values are uncertain.

System: SARS-CoV-2 3CLpro (nsp5)
Assay: substrate phage enrichment score (protease-eluted vs HEPES control, +1 offset) (ratio); higher = better cleaved substrate
Details: selection round: 3; protease elution time: 0.5 h
Method: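 Random heptapeptide substrate phage display (M13 pIII fusion, heptapeptide between an N-terminal biotinylated AviTag GLNDIFEAQKIEWHE and pIII; phages immobilised on streptavidin) eluted by cleavage with 50 nM protease in 20 mM HEPES at 37 °C. Selected phages were NGS sequenced, and the enrichment score is (reads in protease sample + 1)/(reads in HEPES blank-selection control + 1).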

| Substance | substrate phage enrichment score |
| --- | --- |
| RECVVLM | > 28 |
| MPMLQSG | > 27 |
| KREPQYA | 1.5 |
| SCIFRVV | 1.85 |
| NPATMLQ | 18.5 |
| STAAHHH | 1.32 |
| AVEHATQ | 1.6 |
| YVAAHHH | 0.706 |
| VFQGGSA | 2.05 |
| SSSACSK | 0.75 |
| PPVAALQ | > 25 |
| NPSCTKW | 0.762 |
| AYAGETR | 6.67 |
| DLSGRSR | > 25 |
| TGVSRNL | 1.37 |
| RNGNRAT | > 31 |
| SYNGTNL | 1.88 |
| QAEWNYV | > 30 |
| HATQEPY | 0.0476 |
| TRTSMKQ | 1.16 |
| MQECHCP | 3.44 |
| VGRTSLQ | > 66 |
| AMAAHHH | 1.67 |
| KPAPSSP | 5 |
| ESIPTAS | 2.26 |
| NAVPFLR | > 46 |

| Substance | substrate phage enrichment score |
| --- | --- |
| LNVEDTA | 0.941 |
| NSGELDT | 16.5 |
| INSPLLQ | > 24 |
| RRRPSLQ | > 63 |
| AFQGGSA | 0.667 |
| TKLQKNP | > 24 |
| WLGNLQN | 6.5 |
| LLSPNRC | > 27 |
| QNISGQW | 1.09 |
| LPPTDSW | 5 |
| GLQEMDE | > 23 |
| VKKDVSD | > 30 |
| SELKGTD | > 39 |
| QFRGKNT | 0.1 |
| FGFSRLQ | > 36 |
| NYREAAC | > 33 |
| KDTLCKM | 2 |
| MRTVLPS | > 21 |
| TEAAHHH | 0.57 |
| ERALNLD | > 32 |
| SQETTCQ | 1.88 |
| GRECTLQ | > 40 |
| LNFQGGS | 1.71 |
| RNRRERC | 1.56 |
| LYFQGGR | 0.846 |
| GRTSSSP | 1.38 |

| Substance | substrate phage enrichment score |
| --- | --- |
| ALKPLTK | > 23 |
| KRQYMLS | > 35 |
| TVLIKTQ | 1.67 |
| ESHAERS | 0.25 |
| TSAAHHH | 1.5 |
| SCAPTLR | > 26 |
| CATAHHH | 2.58 |
| PRSMKIE | > 22 |
| SKGGCTL | 0.522 |
| SFQGGSA | 0.727 |
| RPAAHHH | 1.3 |
| TYPQAQH | 1.18 |
| LQANGQQ | > 37 |
| SPNNSLC | 23.5 |
| RAAAPHH | 1.11 |
| TNFQGGS | 3 |
| SAPLGNR | > 27 |
| IFRVVVR | 0.525 |
| CVMKTGP | 1.79 |
| PNTDVNN | 3.6 |
| GHGQTSA | 8.33 |
| RPYFQGG | 2.57 |
| LSPTVLH | > 39 |
| WRDTNLQ | 4.5 |
| RNMTEWS | 3.8 |
| HLGNSAR | 1.4 |

| Substance | substrate phage enrichment score |
| --- | --- |
| KTTLKPG | 17 |
| SRESQCN | 3.25 |
| SADAHHH | 1.19 |
| NTTAHHH | 0.429 |
| GRAAAHH | 1.07 |
| NKTTLMN | > 22 |
| WQPSKLQ | > 104 |
| GDTAHWR | 2.31 |
| QRFNVTD | > 29 |
| PHHHHGA | 1 |
| EEAAHHH | 0.643 |
| KQYFQGG | 0.577 |
| SRCSCAH | > 37 |
| TTSKSLY | 6.67 |
| RTFTHRG | 12 |
| DHHHGAA | 5.17 |
| SILQGSA | 17.5 |
| CAWPIHR | 3.67 |
| FSFEPGP | > 21 |
| VKSAYDT | 11 |
| WLLESGG | 3.62 |
| SNTDAPE | 5 |
| VMMMCGR | 1.32 |
| AEQCGTS | > 24 |
| FTAAHHH | 1.21 |
| QYFQGGS | 1.29 |

| Substance | substrate phage enrichment score |
| --- | --- |
| DFTPTAR | 3.29 |
| TGRIGNC | 0.529 |
| PSYAIFQ | > 31 |
| LETKLQS | > 47 |
| LQNLNPT | 0.4 |
| HGQLNVN | > 36 |
| LTGESWH | 15.5 |
| SAAAHNN | 0.733 |
| SAAPHHQ | 1.13 |
| KHGQPCR | > 23 |
| CPHESRS | > 69 |
| PSTRLQS | > 160 |
| SAAHHHH | 1.04 |
| EGSRAPC | 3.39 |
| RAAAQHH | 0.911 |
| RVPLSRN | 1.64 |
| VVAAHHH | 0.6 |
| AESRMDL | 2.5 |
| CERAVMQ | 0.685 |
| GCPTSKA | > 22 |
| KWSGPRL | > 51 |
| ERHTPAL | 1.38 |
| GKSQNPR | 2.36 |
